Screen size: about 410,000 compounds; about 6,400 (1.6%) were called active. Inconclusive results, whose numbers are uncertain, are shown with a selection of clear calls. The call rests on the fitted dose curve; in most records, active means well fitted inhibition curve with a large enough effect; inconclusive means small, poorly fitted or top-dose-only effect; inactive means no such curve, though single readings can be large or run the other way. Potencies beside an inconclusive call are fits to weak or partial responses and may not hold up.
target: Glucagon-like peptide 1 receptor (Homo sapiens) (UniProt P43220); assay: qHTS of GLP-1 Receptor Inverse Agonists (Inhibition Mode); settings: HEK293 GLP-1R CRE-luciferase, luminescence, 24 h, GLP-1R form is constitutively active; series mostly up to 38.3 µM; further: nearly all actives have a fitted effect of over 55% in size
Procedure, shortened: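 HEK293 cells stably co-expressing a cAMP-responsive luciferase reporter and constitutively active GLP-1R were seeded, incubated 12 h, then exposed to compounds for 24 h at 37 C. Luminescence was read 12 min after detection reagent; inverse agonists lower signal.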
Potency means the concentration at half of the fitted maximal effect; tags describe the fitted curve by direction and shape.

Chain of UniProt P43220 (P43220 whole entry, looked up): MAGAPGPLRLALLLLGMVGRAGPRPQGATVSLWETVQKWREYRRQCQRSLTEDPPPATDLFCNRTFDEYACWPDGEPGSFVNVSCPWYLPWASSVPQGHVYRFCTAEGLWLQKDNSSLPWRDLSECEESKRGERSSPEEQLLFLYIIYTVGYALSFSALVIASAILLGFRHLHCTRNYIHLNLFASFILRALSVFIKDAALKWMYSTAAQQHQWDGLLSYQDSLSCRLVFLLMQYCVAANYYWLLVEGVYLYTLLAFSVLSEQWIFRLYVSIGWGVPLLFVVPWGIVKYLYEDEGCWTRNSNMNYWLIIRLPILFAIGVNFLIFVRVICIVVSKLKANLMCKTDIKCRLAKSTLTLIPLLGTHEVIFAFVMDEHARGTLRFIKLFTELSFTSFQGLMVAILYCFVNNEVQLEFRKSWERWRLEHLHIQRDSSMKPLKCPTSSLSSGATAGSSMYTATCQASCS

Potency, active:
CCOCCCNC(=O)/C(C#N)=C/c1ccc(Cl)c([N+](=O)[O-])c1 11.2 µM
O=C(c1cnc(N2CCN(c3ccccn3)CC2)c2ccccc12)N1CCN(c2cccc(Cl)c2)CC1 2.24 µM
O=C(NCc1ccc(F)cc1)C1CCN(S(=O)(=O)c2ccc(Br)s2)CC1 10 µM
CCc1ccc(/C=C2\SC(=S)N(CCCC(=O)N(CCO)c3ccccc3)C2=O)cc1 10 µM
O=C(CN1C(=O)NC2(CCOc3ccccc32)C1=O)Nc1cccc(Cl)c1 (centres undefined) 10 µM

Potency, inconclusive:
Fc1ccc(NC(=S)Nc2cccc3ccccc23)cc1 20 µM [inhibitor, single point]
O=C(NC12CC3CC(CC(C3)C1)C2)c1ccc([N+](=O)[O-])cc1 12.6 µM [inhibitor, single point]
CCN(CC)c1ccc(C2Nc3ccccc3-c3cc(C)nn32)cc1 (centres undefined) 28.2 µM [inhibitor, single point]
O=C(CC12CC3CC(CC(C3)C1)C2)NCc1ccccc1 0.501 µM [inhibitor, full curve, poor fit]
C/C(=C\c1ccccc1)CN1CCC(C(=O)N2CCC(C)CC2)CC1 28.2 µM [inhibitor, single point]
CCOc1ccccc1NC(=O)Cn1c(-c2ccc(Cl)cc2)noc1=O 28.2 µM [inhibitor, partial curve, poor fit]
Cc1ccc(C)c(N2CCN(C(=O)CCc3nc(-c4ccccc4C(F)(F)F)no3)CC2)c1 28.2 µM [inhibitor, single point]
Cc1ccc(C(=O)N2CCN(c3cccc(C)c3C)CC2)cc1S(=O)(=O)N1CCOCC1 10 µM [inhibitor, partial curve, poor fit]
CCC(=O)Nc1ccc(NC(=S)NC(=O)/C=C/c2ccco2)cc1 7.08 µM [inhibitor, partial curve]
Cc1ccc2c(c1)C1CC(C)(O2)N(c2cccc(C(=O)NCc3ccccn3)c2)C(=O)N1 (centres undefined) 28.2 µM [inhibitor, single point]
O=C(COC(=O)C1(c2ccc(F)cc2)CCCC1)N1CCN(C(=O)c2ccco2)CC1 10 µM [inhibitor, partial curve, poor fit]
O=C(NCC1CCCO1)c1ccc(COc2ccc(Br)cc2)cc1 (centres undefined) 31.6 µM [inhibitor, single point]
CC(=O)c1ccc(N2CCN(C(=O)c3cccc(Oc4ccccc4)c3)CC2)cc1 22.4 µM [inhibitor, single point]
COc1cccc(CSc2nc3ccncc3[nH]2)c1 5.01 µM [inhibitor, partial curve]
CC(C)(C)OC(=O)N1CCCC(C(=O)CC#N)C1 (centres undefined) 10 µM [inhibitor, single point]
Cc1ccc2nc(-c3ccc(-c4ccccn4)s3)cn2c1 11.2 µM [inhibitor, single point]
Cc1ccccc1NC(=O)COC(=O)c1ccc(S(C)(=O)=O)c([N+](=O)[O-])c1 28.2 µM [inhibitor, single point]
CCCC(=O)NC1CCCc2c1cnn2-c1ccc(C)c(C)c1 (centres undefined) 28.2 µM [inhibitor, single point]
COc1ccccc1C(CCN(Cc1cccs1)C(C)=O)c1ccco1 (centres undefined) 3.98 µM [inhibitor, partial curve, poor fit]
Cc1cccc(NC(=O)N2CCN(Cc3ccc4c(c3)OCO4)CC2)c1C 7.08 µM [inhibitor, partial curve, poor fit]
O=C(CNC(=O)c1cccc(OC(F)F)c1)Nc1ccc(Cl)cc1 11.2 µM [inhibitor, single point]
CCOc1ccc(-c2nnc(N(CC)C(=O)C3CCC3)s2)cc1 10 µM [inhibitor, partial curve]
C#CCSc1nnnn1-c1cccc(Cl)c1 10 µM [inhibitor, single point]
CN(c1ccccc1)S(=O)(=O)c1cccc(Cl)c1Cl 31.6 µM [inhibitor, single point]
OCCC1CN(CC(c2ccccc2)c2ccccc2)CCN1C1CCCC1 (centres undefined) 22.4 µM [inhibitor, single point]
COCCNC(=O)c1cccc(OC2CCN(Cc3ccc(F)c(OC)c3)CC2)c1 10 µM [inhibitor, partial curve, poor fit]
Nc1nn(-c2ccccc2)nc1C(=O)OCc1c(F)cccc1Cl 28.2 µM [inhibitor, single point]
COc1cc2c(=O)n(Cc3ccco3)c(=O)n(CC(=O)c3cccc(Br)c3)c2cc1OC 1.12 µM [inhibitor, full curve, poor fit]
Cc1ccc(S(=O)(=O)Nc2ccc(O)c3cccnc23)cc1 14.1 µM [inhibitor, single point]

Potency, inactive:
Cc1ccc(S(=O)(=O)c2nc(-c3ccc(F)cc3)oc2N2CCN(c3ccccc3)CC2)cc1
COc1ccccc1Nc1ncnc2scc(-c3ccc(F)cc3)c12
c1ccc2c(c1)-c1cccc3cncc-2c13
CCCCN(C)C(=O)Cn1cnc2sc(C)c(S(=O)(=O)N3CCC(C)CC3)c2c1=O
COc1ccc(Nc2nn(-c3ccc(OC(F)(F)F)cc3)nc2C(C)=O)cc1
CCCCOc1ccc(-c2nnc(-c3ccncc3)o2)cc1
O=C(Nc1ccc2nc3n(c(=O)c2c1)CCCCC3)c1cccc(C(F)(F)F)c1
O=C(CCC1N=C2c3ccccc3N=C(SCC(=O)Nc3ccc(F)cc3)N2C1=O)NCc1ccco1 (centres undefined)
Cc1ccc(N(Cc2cccs2)C(=O)c2ccco2)cc1
CC(C)(C)c1ccc(C(=O)NC(=S)Nc2ccc(N3CCOCC3)cc2)cc1

Reference: PubChem BioAssay AID624417 (National Center for Advancing Translational Sciences (NCATS), 2012)
